Source: the supplement of paper PMC8728848
The list shows a part of the results.

Key:
Assay in all cases: glycan array binding signal (z-score within array); higher = stronger binding
Settings in all cases: glycan notation: IUPAC condensed, linker removed
[1] = target: Fuc(a1-2)Gal(b1-4)[Fuc(a1-3)]GlcNAc(b1-2)Man(a1-3)[Fuc(a1-2)Gal(b1-4)[Fuc(a1-3)]GlcNAc(b1-2)Man(a1-6)]Man(b1-4)GlcNAc(b1-4)[Fuc(a1-6)]GlcNAc
In short: (§1)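 Arrays were curated from the Consortium for Functional Glycomics database, 3228 in total, and kept only where the protein sequence was available. Binding is expressed as a within-array Z-score. This score was averaged across arrays of the same protein sequence at different concentrations or buffers and across linkers, and negative values can be read as non-binding.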

[2] = target: Fuc(a1-2)Gal(b1-4)[Fuc(a1-3)]GlcNAc(b1-2)[Fuc(a1-2)Gal(b1-4)[Fuc(a1-3)]GlcNAc(b1-4)]Man(a1-3)[Fuc(a1-2)Gal(b1-4)[Fuc(a1-3)]GlcNAc(b1-2)Man(a1-6)]Man(b1-4)GlcNAc(b1-4)GlcNAc
In short: as §1

[3] = target: Fuc(a1-2)Gal(b1-4)[Fuc(a1-3)]GlcNAc(b1-3)Gal(b1-4)[Fuc(a1-3)]GlcNAc
In short: as §1

[4] = target: Fuc(a1-2)Gal(b1-4)[Fuc(a1-3)]GlcNAc(b1-3)Gal(b1-4)[Fuc(a1-3)]GlcNAc(b1-3)Gal(b1-4)[Fuc(a1-3)]GlcNAc
In short: as §1

[5] = target: Fuc(a1-2)Gal(b1-4)[Fuc(a1-3)]GlcNAc(b1-3)GalNAc
In short: as §1

[6] = target: Fuc(a1-2)Gal(b1-4)[Fuc(a1-3)]GlcNAc(b1-3)[Neu5Ac(a2-6)Gal(b1-4)GlcNAc(b1-6)]Gal(b1-4)Glc
In short: as §1

[7] = target: Fuc(a1-2)Gal3S(b1-4)GlcNAc
In short: as §1

[8] = target: Fuc(a1-2)Gal6S(b1-3)GlcNAc
In short: as §1

[9] = target: Fuc(a1-2)Gal6S(b1-3)GlcNAc6S
In short: as §1

[10] = target: Fuc(a1-2)Gal6S(b1-4)Glc
In short: as §1

[11] = target: Fuc(a1-2)Gal6S(b1-4)Glc6S
In short: as §1

[12] = target: Fuc(a1-2)[Gal(a1-3)]Gal
In short: as §1

[13] = target: Fuc(a1-2)[Gal(a1-3)]Gal(b1-3)GalNAc
In short: as §1

[14] = target: Fuc(a1-2)[Gal(a1-3)]Gal(b1-3)GalNAc(b1-3)Gal(a1-4)Gal(b1-4)Glc
In short: as §1

[15] = target: Fuc(a1-2)[Gal(a1-3)]Gal(b1-3)GlcNAc
In short: as §1

[16] = target: Fuc(a1-2)[Gal(a1-3)]Gal(b1-3)GlcNAc(b1-2)Man(a1-3)[Fuc(a1-2)[Gal(a1-3)]Gal(b1-3)GlcNAc(b1-2)Man(a1-6)]Man(b1-4)GlcNAc(b1-4)GlcNAc
In short: as §1

[17] = target: Fuc(a1-2)[Gal(a1-3)]Gal(b1-3)GlcNAc(b1-2)Man(a1-3)[Fuc(a1-2)[Gal(a1-3)]Gal(b1-3)GlcNAc(b1-2)Man(a1-6)]Man(b1-4)GlcNAc(b1-4)[Fuc(a1-6)]GlcNAc
In short: as §1

[18] = target: Fuc(a1-2)[Gal(a1-3)]Gal(b1-3)GlcNAc(b1-3)GalNAc
In short: as §1

[19] = target: Fuc(a1-2)[Gal(a1-3)]Gal(b1-3)GlcNAc(b1-6)GalNAc
In short: as §1

[20] = target: Fuc(a1-2)[Gal(a1-3)]Gal(b1-4)Glc
In short: as §1

[21] = target: Fuc(a1-2)[Gal(a1-3)]Gal(b1-4)GlcNAc
In short: as §1

[22] = target: Fuc(a1-2)[Gal(a1-3)]Gal(b1-4)GlcNAc(b1-2)Man
In short: as §1

[23] = target: Fuc(a1-2)[Gal(a1-3)]Gal(b1-4)GlcNAc(b1-2)Man(a1-3)[Fuc(a1-2)[Gal(a1-3)]Gal(b1-4)GlcNAc(b1-2)Man(a1-6)]Man(b1-4)GlcNAc(b1-4)GlcNAc
In short: as §1

[24] = target: Fuc(a1-2)[Gal(a1-3)]Gal(b1-4)GlcNAc(b1-2)Man(a1-3)[Fuc(a1-2)[Gal(a1-3)]Gal(b1-4)GlcNAc(b1-2)Man(a1-6)]Man(b1-4)GlcNAc(b1-4)[Fuc(a1-6)]GlcNAc
In short: as §1

[25] = target: Fuc(a1-2)[Gal(a1-3)]Gal(b1-4)GlcNAc(b1-3)GalNAc
In short: as §1

[26] = target: Fuc(a1-2)[Gal(a1-3)]Gal(b1-4)GlcNAc(b1-3)[Fuc(a1-2)[Gal(a1-3)]Gal(b1-4)GlcNAc(b1-6)]GalNAc
In short: as §1

[27] = target: Fuc(a1-2)[Gal(a1-3)]Gal(b1-4)GlcNAc(b1-6)GalNAc
In short: as §1

[28] = target: Fuc(a1-2)[Gal(a1-3)]Gal(b1-4)[Fuc(a1-3)]Glc
In short: as §1

[29] = target: Fuc(a1-2)[Gal(a1-3)]Gal(b1-4)[Fuc(a1-3)]GlcNAc
In short: as §1

[30] = target: Fuc(a1-2)[Gal(a1-3)]Gal(b1-4)[Fuc(a1-3)]GlcNAc(b1-3)GalNAc
In short: as §1

[31] = target: Fuc(a1-2)[Gal(a1-4)]Gal(b1-4)GlcNAc
In short: as §1

[32] = target: Fuc(a1-2)[GalNAc(a1-3)]Gal
In short: as §1

[33] = target: Fuc(a1-2)[GalNAc(a1-3)]Gal(b1-3)GalNAc(a1-3)[Fuc(a1-2)]Gal(b1-4)GlcNAc
In short: as §1

[34] = target: Fuc(a1-2)[GalNAc(a1-3)]Gal(b1-3)GalNAc(b1-3)Gal(a1-4)Gal(b1-4)Glc
In short: as §1

[35] = target: Fuc(a1-2)[GalNAc(a1-3)]Gal(b1-3)GlcNAc
In short: as §1

[36] = target: Fuc(a1-2)[GalNAc(a1-3)]Gal(b1-3)GlcNAc(b1-2)Man(a1-3)[Fuc(a1-2)[GalNAc(a1-3)]Gal(b1-3)GlcNAc(b1-2)Man(a1-6)]Man(b1-4)GlcNAc(b1-4)GlcNAc
In short: as §1

[37] = target: Fuc(a1-2)[GalNAc(a1-3)]Gal(b1-3)GlcNAc(b1-2)Man(a1-3)[Fuc(a1-2)[GalNAc(a1-3)]Gal(b1-3)GlcNAc(b1-2)Man(a1-6)]Man(b1-4)GlcNAc(b1-4)[Fuc(a1-6)]GlcNAc
In short: as §1

[38] = target: Fuc(a1-2)[GalNAc(a1-3)]Gal(b1-3)GlcNAc(b1-3)GalNAc
In short: as §1

B1: Pwp3 (Candida glabrata) (protein)
chain: MGSSHHHHHHSSGLVPRGSHMASKNPVDFTTVCQFPDNFSKKPGFLATTARLGLWITGNSYKELLNYPGTFTLTTQQASTTTPNIQLRGTDLFTTIYGLTVYPLYLLVELQGYFVPTQSGMYTFSLTGSDDAAIIFIGNPSTFPCDAFKTWPQATANDITVTDSINPSRTLYMVKGVAYPLRIAYYNGLGNGVLNAAFTDPSGTKRTDWNGYIWQYDQCSTCTYK
glycan array binding signal (z-score) [1]: -0.367 | glycan array binding signal (z-score) [2]: -0.262 | glycan array binding signal (z-score) [3]: 0.07 | glycan array binding signal (z-score) [4]: -0.449 | glycan array binding signal (z-score) [5]: -0.317 | glycan array binding signal (z-score) [6]: -0.179 | glycan array binding signal (z-score) [7]: -0.232 | glycan array binding signal (z-score) [8]: -0.064 | glycan array binding signal (z-score) [9]: -0.093 | glycan array binding signal (z-score) [10]: -0.444 | glycan array binding signal (z-score) [11]: -0.148 | glycan array binding signal (z-score) [12]: -0.371 | glycan array binding signal (z-score) [13]: 0.487 | glycan array binding signal (z-score) [14]: 0.266 | glycan array binding signal (z-score) [15]: -0.13 | glycan array binding signal (z-score) [16]: -0.212 | glycan array binding signal (z-score) [17]: -0.189 | glycan array binding signal (z-score) [18]: -0.312 | glycan array binding signal (z-score) [19]: 4.02 | glycan array binding signal (z-score) [20]: -0.227 | glycan array binding signal (z-score) [21]: -0.219 | glycan array binding signal (z-score) [22]: -0.453 | glycan array binding signal (z-score) [23]: -0.392 | glycan array binding signal (z-score) [24]: -0.289 | glycan array binding signal (z-score) [25]: -0.138 | glycan array binding signal (z-score) [26]: -0.713 | glycan array binding signal (z-score) [27]: -0.219 | glycan array binding signal (z-score) [28]: 0.009 | glycan array binding signal (z-score) [29]: -0.258 | glycan array binding signal (z-score) [30]: -1.06 | glycan array binding signal (z-score) [31]: 0.213 | glycan array binding signal (z-score) [32]: 0.148 | glycan array binding signal (z-score) [33]: -0.194 | glycan array binding signal (z-score) [34]: -0.392 | glycan array binding signal (z-score) [35]: -0.709 | glycan array binding signal (z-score) [36]: -0.178 | glycan array binding signal (z-score) [37]: -0.184 | glycan array binding signal (z-score) [38]: -0.434
